From PubChem BioAssay AID488969 (Vanderbilt High Throughput Screening Facility, 2010)
In all, about 110,000 compounds were measured (“z-score”: median about -0.1, highest 2% from about 2 on). This is one part of the list. The source made the active and inactive calls.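 The calls were made as follows: active = z-score in the third read window above 3 or below -3; inactive = the rest.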

What follows are compounds tested against Metabotropic glutamate receptor 8 (Rattus norvegicus) (UniProt P70579) (assay: rat mGluR8 modulators via GIRK flux, primary screen, cell-based, thallium flux, HTS (AID 488969)). Settings: HEK293 rat mGluR8, GIRK (G protein-gated inwardly rectifying potassium channel) thallium flux, FluoZin2; at 10 µM; stronger effect = higher value; submaximal glutamate (EC20) added with thallium.
Chain of UniProt P70579 (P70579 whole entry, looked up): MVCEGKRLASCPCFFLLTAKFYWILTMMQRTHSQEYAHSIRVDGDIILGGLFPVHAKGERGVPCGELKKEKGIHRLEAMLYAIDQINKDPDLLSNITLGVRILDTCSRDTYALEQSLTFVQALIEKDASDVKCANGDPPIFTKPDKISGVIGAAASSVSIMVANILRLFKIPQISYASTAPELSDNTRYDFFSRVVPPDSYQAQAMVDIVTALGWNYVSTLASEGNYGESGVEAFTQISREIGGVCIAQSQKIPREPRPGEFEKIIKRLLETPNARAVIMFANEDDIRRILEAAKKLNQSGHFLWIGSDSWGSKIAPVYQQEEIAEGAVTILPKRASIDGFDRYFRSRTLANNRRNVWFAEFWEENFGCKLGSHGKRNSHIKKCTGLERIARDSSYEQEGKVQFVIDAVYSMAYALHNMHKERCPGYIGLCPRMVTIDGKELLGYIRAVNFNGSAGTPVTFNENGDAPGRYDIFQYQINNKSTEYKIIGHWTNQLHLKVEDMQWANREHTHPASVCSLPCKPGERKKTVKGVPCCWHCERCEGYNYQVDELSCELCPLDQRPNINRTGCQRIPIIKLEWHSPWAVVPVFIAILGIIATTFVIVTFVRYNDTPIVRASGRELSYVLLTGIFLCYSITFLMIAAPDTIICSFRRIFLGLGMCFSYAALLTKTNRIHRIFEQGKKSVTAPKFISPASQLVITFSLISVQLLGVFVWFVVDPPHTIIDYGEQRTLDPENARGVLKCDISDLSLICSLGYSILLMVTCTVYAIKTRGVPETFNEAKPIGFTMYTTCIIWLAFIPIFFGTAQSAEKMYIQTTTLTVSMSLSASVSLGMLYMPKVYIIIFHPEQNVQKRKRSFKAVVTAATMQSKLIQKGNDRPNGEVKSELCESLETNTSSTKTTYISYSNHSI
`CCOC(=O)Cn1c(=O)oc2cc(S(=O)(=O)NCCC(C)C)ccc21` gave a z-score of -0.204. `O=C(O)c1cc(=O)cc(C(=O)O)[nH]1` was tested, and the z-score was 0.06. `N#C/C(=C\c1cccc([N+](=O)[O-])c1)c1nnc2n1CCCCC2` was tested, and the z-score was -1.66. For `O=C(COc1ccccc1Cl)NCCc1ccc2c(c1)OCCO2`, the z-score was -0.272. Compound `COC(=O)CCCc1nc2ccccc2s1` has a z-score of -0.393. `Cc1cc(NC(=O)Cn2cnc3sc(C)c(-c4ccccc4)c3c2=O)no1` was tested, and the z-score was -0.368. For `C=CCn1c(SCC(=O)Nc2nc(C)cs2)nnc1C(CO)NC(=O)c1ccccc1` (stereo not drawn), the z-score was 0.435. `Cc1ccc(N2C(=O)[C@@H]3[C@H](C2=O)C2c4ccccc4C=CN2[C@@H]3C(=O)c2ccco2)cc1` (stereo partly drawn) showed a z-score of -0.0364. Work on `C#CCn1cc(C=C2C(=O)c3ccccc3C2=O)c2ccccc21` yielded a z-score of -0.45. `Cc1ccc(S(=O)(=O)/N=C2\C(=O)c3ccccc3C([O-])=C2n2cc[n+](CCC(C)C)c2)cc1` gave a z-score of -0.914. With `C=CCn1cnc2scc(-c3ccc(C)cc3)c2c1=O` the z-score was -0.991. `CCOc1ccc(/C=N/NC(=O)c2ccc(CSc3nc4ccccc4[nH]3)cc2)cc1` was tested, and the z-score was -0.0306. Compound `CCOCCCNC(=O)C1CCN(S(=O)(=O)N2CCCCC2)CC1` has a z-score of -0.0455. Work on `CCN1CCCC1CNC(=O)C1c2ccccc2C(=O)N(CCOC)C1c1ccc(F)cc1` (stereo not drawn) yielded a z-score of -0.425. For `CCNC(=O)NC(C(=O)OC)C12CC3CC(CC(C3)C1)C2` (stereo not drawn), the z-score was 0.104. In the case of `C=CCN1C(=O)/C(=C\c2ccc(Cl)cc2)N=C1SCC(=O)NCCC`, the z-score is reported as -1.09. For `Cc1ccc(NC(=O)C2Cc3ccccc3CN2C(=O)c2ccccc2)cc1Cl` (stereo not drawn), the z-score was -0.147. `CSc1ccc(S(=O)(=O)Nc2c(C)cccc2C)cc1` gave a z-score of -0.155. With `Cn1c(NNC(=O)c2ccc(C(C)(C)C)cc2)cc(=O)n(C)c1=O` the z-score was -0.0623. `Cc1cc(N2CCN(C(c3ccccc3)c3ccccc3)CC2)n2ncnc2n1` showed a z-score of -0.234. For `Cc1ccc(S(=O)(=O)N(CC(=O)N2CCCC2)C2CCCCC2)cc1`, the z-score was -0.771. In the case of `CC(C)C(NC(=O)OCc1ccccc1)C(=O)OCC(=O)NCc1ccco1` (stereo not drawn), the z-score is reported as -0.533. `O=C(OCc1cc2ccccc2[nH]c1=O)c1ccccn1` was tested, and the z-score was 1.93. In the case of `COc1ccccc1OCCC(=O)OCC(=O)Nc1cccc(Br)c1`, the z-score is reported as 0.0343. `CN(Cc1ccccc1)C(=O)c1cccc(NC(=O)c2ccco2)c1` showed a z-score of -1.4. Compound `CCNC(=S)N1CCNC(=O)C1CC(=O)OC` (stereo not drawn) has a z-score of 0.191. `COC(=O)c1sc2ncn(-n3c(C)ccc3C)c(=O)c2c1C` showed a z-score of -1.04. For `O=C(c1ccccc1Sc1cccc2ccccc12)N1CCOCC1`, the z-score was -0.326. Compound `CSc1ccc(Cl)c(C(=O)NCCOc2cc(C(C)C)ccc2C)c1` has a z-score of 1.16. With `CCN(C(=O)c1ccc(S(C)(=O)=O)cc1)C12CC3CC(CC(C3)C1)C2` the z-score was 0.118. `Cc1ccc(C(c2nnnn2C2CCCC2)N2CCN(c3nc4ccccc4s3)CC2)cc1` (stereo not drawn) showed a z-score of -0.351. Compound `O=C(OCc1nc(-c2ccccc2)oc1COC(=O)c1ccco1)c1ccco1` has a z-score of -0.0571. With `COc1cc(C)nc(N2CCCC(C(=O)Nc3cc(Cl)ccc3OC)C2)n1` (stereo not drawn) the z-score was -0.666. `CN1CCN(S(=O)(=O)c2ccc3c4c(cccc24)C(=O)N3)CC1` was tested, and the z-score was -0.000659. `CC(=O)N1CCC(=NNS(=O)(=O)c2cccc([N+](=O)[O-])c2)CC1` was tested, and the z-score was 0.187. `Cc1[nH]n(-c2ccccc2)c(=O)c1N=Nc1cccc(S(=O)(=O)N2CCOCC2)c1` showed a z-score of 0.327. `COc1ccc(C(=O)n2nc(-c3ccccc3)nc2N)cc1OC` was tested, and the z-score was -0.577. With `N#C/C(C(=O)N1CCOCC1)=C1/SC(Cc2ccccc2)C(=O)N1c1ccccc1` (stereo not drawn) the z-score was 0.437. `Cc1ccc(OS(=O)Nc2cccc3nccnc23)cc1` (stereo not drawn) showed a z-score of 0.149. `COc1ccccc1NC(=O)c1ccc(SCC(=O)NCc2ccccc2Cl)c([N+](=O)[O-])c1` showed a z-score of -0.169. With `COc1ccc(-c2cc3nc4n(c(=O)c3s2)CCC4)cc1` the z-score was 0.715. With `CCC(C)[C@H](NC(=O)NCc1cccs1)C(=O)OC` (stereo partly drawn) the z-score was -0.445. With `COc1ccc(CCNC(=O)COc2ccc(-c3ccc(C)cc3)cc2)cc1OC` the z-score was -0.117. With `O=C(NNC(=S)NC(=O)c1cccnc1)c1ccc(Cl)cc1` the z-score was 0.171. `CCOc1ccc(NC(=O)c2ccncc2)cc1` showed a z-score of 0.0505. Work on `CC(C)N=C(Nc1ccccc1)c1cccnc1` yielded a z-score of 0.0587. `CC(C)NC(=O)c1nc2ccccc2s1` was tested, and the z-score was active: 3.05. `Cc1ccc(-n2c(C)cc(/C=N/Nc3ccc([N+](=O)[O-])cn3)c2C)c(C)c1` showed a z-score of -0.033. `CC(=O)Nc1ccccc1-c1nn[nH]n1` showed a z-score of -0.175. In the case of `O=C(Nn1cnnc1)C(Sc1ccccc1)c1ccccc1` (stereo not drawn), the z-score is reported as -0.0096. Compound `O=C(COc1ccccc1/C=C1/NC(=O)NC1=O)Nc1ccccc1` has a z-score of 0.0997. In the case of `O=[N+]([O-])c1cc(C(F)(F)F)cc([N+](=O)[O-])c1N1CCN(S(=O)(=O)c2ccccc2)CC1`, the z-score is reported as -0.181. `CC(=O)Nc1ccc(C(=O)OCC(=O)Nc2ccc([N+](=O)[O-])cc2C(F)(F)F)cc1` gave a z-score of -0.321. With `O=C(NC1CCCCC1)C(c1cccs1)N(C(=O)Cc1c[nH]c2ccccc12)c1ccc(F)cc1` (stereo not drawn) the z-score was 0.108. `Cc1ccc2oc(-c3cccc(NC(=O)c4ccc(Br)o4)c3C)nc2c1` was tested, and the z-score was -0.242. Work on `O=C(N/C(=C\c1cn(-c2ccccc2)nc1-c1ccc(Cl)cc1)C(=O)N1CCOCC1)c1ccccc1` yielded a z-score of -0.0568. For `CC(C)c1nnc(SCC(=O)Nc2ccc3c(c2)OCO3)n1C`, the z-score was -0.159. `COc1ccc2cnnc(SCC(=O)Nc3ccc(C(=O)O)cc3)c2c1OC` gave a z-score of 0.0402. In the case of `CCC(C)NC(=O)CSc1nc2c(sc(=S)n2Cc2ccco2)c(=O)n1-c1ccccc1` (stereo not drawn), the z-score is reported as 0.437. `Cc1cccnc1Nc1nc(-c2ccc(O)cc2O)cs1` was tested, and the z-score was 0.0679. Compound `CCOC(=O)c1cccc(NC(=O)N[C@@H](C)C(=O)OC)c1` has a z-score of 0.116. For `Cc1ccn2cc(CCNS(=O)(=O)c3ccc4c(c3)OCCO4)nc2c1`, the z-score was -0.433. Work on `CCn1c(SCC(=O)NCCc2ccc(Cl)cc2)nnc1-c1cccs1` yielded a z-score of -0.84. For `Cc1cc(=O)oc2c1ccc1oc(/C(=N/O)c3ccccc3)c(C)c12`, the z-score was -0.065. Compound `COc1ccccc1NS(=O)(=O)c1ccc(C(=O)OCC(=O)NCc2ccco2)cc1` has a z-score of -0.0327. Compound `O=C(NNC1=C(C(=O)C(F)(F)F)CCC1)c1ccccc1O` has a z-score of -0.487. `O=C(N/N=C/c1ccc(F)c(F)c1)c1cc2c(s1)-c1ccccc1CC2` was tested, and the z-score was 0.14. With `COc1ccc(C2C(C#N)=C(N)OC3=C2C(=O)CC(C)(C)C3)cc1Cn1cc([N+](=O)[O-])cn1` (stereo not drawn) the z-score was -0.0568.
